The source gives no read counts; variants with many changes may rest on few reads.

B1: CPEB3 Ribozyme (parent)
chain: UAACAGGGGGCCACAGCAGAAGCGUUCACGUCGCAGCCCCUGUCAGAUUCUGGUGAAUCUGCGAAUUCUGCUGUAUAUCUC

This series covers variants of B1. As to the kind of experiment: self-cleavage, relative activity (ratio to wild type); higher = more cleavage; in vitro, sequencing. An outline of the steps:
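Relative activity compares each variant's cleaved/total read fraction with that of the unmutated ribozyme. To get these fractions, barcoded CPEB3 ribozyme libraries from rounds of error-prone PCR were transcribed with T7 RNA polymerase for 5 hours at 37°C and then given 15 min of DNase I treatment before EDTA was added. The RNAs were reverse transcribed with template switching and sequenced on Illumina, and DNA sequencing linked barcodes to variants. A minimum of 5 reads applied, and three batches were averaged.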
Regarding UAACAGGGGGCCACAGCAGAAGCGUCCACGUCGCAGCCCCUGUCGGAUCCUGGUGAAUCCGCGAAUUCUGCUGUAUAUCUU [U26C A45G U49C U60C C81U], the self-cleavage is 0.27.
For UAACAGGGGGCCACAGCAGAAGCGUCCACGUCGCAGCCCCUGUCCGAUUCUGGUGGAUCUGCGAAUUCUGCUGUAUAUCUC [U26C A45C A56G] the value was 0.07.
For UAACAGGGGGCCACAGCAGAAGCGUCCACGUCGCAGCCCCUGUCGGAUUCCGGUGAAUCAGCGAAUACUGCUGUCUAUCUC [U26C A45G U51C U60A U67A A75C] the value was 0.27; for UAACAGGGGGCCACAGCAGAAGCGUCCACGUCGCUGCCCCUGUCAGGUUCUGGUGAAUCUGCGAAUUCUGCUGUAUAUCUC [U26C A35U A47G], 0.23; for UAACAGGGGGCCACAGCAGAAGCGUCCACGUCGCAGCCCCUGUCUGAUUCUGGUGAAUCUGCGAAUUCUGCUGUAUCUCUC [U26C A45U A77C], 0.22.
For UAACAGGGGGCCACAGCAGAAGCGUCCACGUCGCAGCCCCUGUCUGAUUCUGGUGAAUCUGCGAAUUAUGCUGUAUAUCCC [U26C A45U C68A U80C] the value was 0.09; for UAACAGGGGGCCACAGCAGAAGCGUCCACGUCGCAGCCCCUGUCUGACUCUGGUGAAUCUGCGAAUUCUGCCGUAUAUCUC [U26C A45U U48C U72C], 0.09.
Consider UAACAGGGGGCCACAGCAGAAGCGUCCACGUCGCGGCCCCUGUCAGAUUCUGGUGAAUCUGCGAAUUCUGCUGCAUACCUC [U26C A35G U74C U78C], for which the self-cleavage turned out to be 1.23.
Under UAACAGGGGGCCACAGCAGAAGCGUCCACGUCGCAGCCCCUGUCAGCUUCUGGUGAAUCUGCGAAUUCCGCUGUAAAUCUC [U26C A47C U69C U76A] stands 0.13; under UAACAGGGGGCCACAGCAGAAGCGUCCACGUCGCUGCCCCUGUCAGAUUCUGGUGAAUCAGCGAAUUCUGCUGUACAUCUC [U26C A35U U60A U76C], 0.13; under UAACAGGGGGCCACAGCAGAAGCGUCCACGUCGCAGCCCCUGUCUGAUUCUGGUGAAUCUGCGAUUUCUGCUGCAUAUCUC [U26C A45U A65U U74C], 0.1.
For UAACAGGGGGCCACAGCAGAAGCGUCCACGUCGCAGCCCCUGUCGGAUUCUGGUGAAACUGCGAAUUCUGCUGUAUAUCUC [U26C A45G U58A] the value was 0.17; for UAACAGGGGGCCACAGCAGAAGCGUCCACGUCGCUGCCCCUGUCAGAUCAUGGUGAAUCUGCGAAUUCUGCUGCAUAUCUC [U26C A35U U49C C50A U74C], 0.38.
For UAACAGGGGGCCACAGCAGAAGCGUCCACGUCGCAGCCCCUGUCGGAUCCUGGUGAAUCUGCGUAUUCUGCUGUAUAUCUC [U26C A45G U49C A64U] the value was 0.08; for UAACAGGGGGCCACAGCAGAAGCGUCCACGUCGCUGCCCCUGUCAGGCUCUGGUGAAUUUGCGAAUUCUGCUGUAUAUCUC [U26C A35U A47G U48C C59U], 0.15; for UAACAGGGGGCCACAGCAGAAGCGUCCACGUCGCAGCCCCUGUCUGAUUCUGGUGAAUCUGCGAAUUCCGCUGUAUAUCUC [U26C A45U U69C], 0.1.
In the case of UAACAGGGGGCCACAGCAGAAGCGUCCACGUCGCAGCCCCUGUCUGAUUCUGGUGAAUCUGCGAAUUCAGCUGUAUAUCUC [U26C A45U U69A], the self-cleavage stood at 0.09.
For UAACAGGGGGCCACAGCAGAAGCGUCCACGUCGCAGCCCCUGUCUGAUUCUGGUGAAUCAGCGAAUUCUGCCGUAUAUCUC [U26C A45U U60A U72C] the value was 0.5; for UAACAGGGGGCCACAGCAGAAGCGUCCACGUCGCAGCCCCUGUCGGAUUCUGGUGAAUCUGCGAAUUCUGCUCUAUAUCUC [U26C A45G G73C], 0.61.
Under UAACAGGGGGCCACAGCAGAAGCGUCCACGUCGCUGCCCCUGUUAGAUUCUGGUGAAUCUGCGAAUUCUGCUGUAUAUCUC [U26C A35U C44U] stands 0.17; under UAACAGGGGGCCACAGCAGAAGCGUCCACGUCGCAGCCCCUGUCGGAUCCUGGUGAAUCCGCGAAUUCUGCUGUAUAUCUC [U26C A45G U49C U60C], 0.31; under UAACAGGGGGCCACAGCAGAAGCGUCCACGUCGCAGCCCCUGUCGGAUUCAGGUGAGUCUGCGAAUUCUGCUGUAUAUCUC [U26C A45G U51A A57G], 0.26.
For the variant UAACAGGGGGCCACAGCAGAAGCGUCCACGUCGCAGCCCCUGUCCGAUUCUGGUGAAUCUGCGUAUUCUGCUGUAUAUCUC [U26C A45C A64U], the self-cleavage is 0.07.
Under UAACAGGGGGCCACAGCAGAAGCGUCCACGUCGCUGCCCCUGUCAGAUCCUGGUGAAUCUGCGAAUUCAGCUGUAUAUCUC [U26C A35U U49C U69A] stands 0.09; under UAACAGGGGGCCACAGCAGAAGCGUCCACGUCGCAGCCCCUGUCAGGUUCUGGUGAAUCUGCGAAUUUUGCUGCAUAUCUC [U26C A47G C68U U74C], 0.55.
Under UAACAGGGGGCCACAGCAGAAGCGUCCACGUCGCUGCCCCUGACAGAUUCAGGUGAAUCUGCGAAUUCUGCUGUAUAUCUC [U26C A35U U43A U51A] stands 0.13.
UAACAGGGGGCCACAGCAGAAGCGUCCACGUCGCUGCCCCUGUCAGAUUCUGGUGAAUCCGCGAAUUCUGCUGUAUAUCUC [U26C A35U U60C]: the self-cleavage was 0.13.
UAACAGGGGGCCACAGCAGAAGCGUCCACGUCGCAGCCCCUGUCUGAUUCCGGUGAAUCUGCGAAUUCUGCUGUAUAUCUC [U26C A45U U51C]: the self-cleavage turned out to be 0.28.
For UAACAGGGGGCCACAGCAGAAGCGUCCACGUCGCAGCCCCUGUCAGGACCUGGUGAAUCUGCGAAUUCAGCUGUACAUCUC [U26C A47G U48A U49C U69A U76C] the value was 0.06.
For the variant UAACAGGGGGCCACAGCAGAAGCGUCCACGUCGCUGCCCCUGUCAGACUCUGGUGUAUCUGCGUAUUCUGCUGUAUAUCUC [U26C A35U U48C A56U A64U], the self-cleavage came to 0.14.
As for UAACAGGGGGCCACAGCAGAAGCGUCCACGUCGCUGCCCCUGUCCGAUUCUGGCGAAUCUGCGAGUUCUGCUGUAUGUCUC [U26C A35U A45C U54C A65G A77G], the self-cleavage amounted to 0.03.
With UAACAGGGGGCCACAGCAGAAGCGUCCACGUCGCUGCCCCUGCCAGAUUCUGGUGGAUCUGCGAAUUCUGCUGUGCAUCUC [U26C A35U U43C A56G A75G U76C], the self-cleavage was 0.06.
Regarding UAACAGGGGGCCACAGCAGAAGCGUCCACGUCGCAGCCCCUGUCGGAUUCUGGUGAAUCAGCGAAUUCUGCCGUAUAUCUC [U26C A45G U60A U72C], the self-cleavage stood at 0.42.
In the case of UAACAGGGGGCCACAGCAGAAGCGUCCACGUCGCUGCCCCCGACGGAUUCUGGUGAAUCUGCGAAUUCUGCUGUAUAUCUC [U26C A35U U41C U43A A45G], the self-cleavage is 0.09.

The values are drawn from the RNAGym collection of RNA variant scans (doi:10.1093/nar/gkz1192).
